Consider 35 compounds from PubChem BioAssay AID1745853 (National Center for Advancing Translational Sciences (NCATS), 2022).

Common to all, as to assay: Primary Screen for Target Class Profiling of Small Molecule Inhibitors of Methyltransferases
For assay [1], the target named is Glycine N-methyltransferase (Homo sapiens) (UniProt Q14749). The note with it: purified enzyme, MTase-Glo SAH luminescence; measured here: GNMT inhibition; at 40 µM; stronger effect = lower value. The gist of the method: (§1)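 Each enzyme was assayed with SAM and its substrate. SAH formation detected by MTase-Glo luminescence; single-point 40 uM screen[…].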

The target in assay [2] is Guanidinoacetate N-methyltransferase (Homo sapiens) (UniProt Q14353). The note with it: purified enzyme, MTase-Glo SAH luminescence; measured here: GAMT inhibition; at 40 µM; stronger effect = lower value. The gist of the method:
as §1

Assay [3] addresses Histamine N-methyltransferase (Homo sapiens) (UniProt P50135). The note with it: purified enzyme, MTase-Glo SAH luminescence; measured here: HNMT inhibition; at 40 µM; stronger effect = lower value. The gist of the method: as §1
Assay [4] concerns the target Nicotinamide N-methyltransferase (Homo sapiens) (UniProt P40261). The note with it: purified enzyme, MTase-Glo SAH luminescence; measured here: NNMT inhibition; at 40 µM; stronger effect = lower value. The essentials: as §1
In assay [5] the target is Phenylethanolamine N-methyltransferase (Homo sapiens) (UniProt P11086). The note with it: purified enzyme, MTase-Glo SAH luminescence; measured here: PNMT inhibition; at 40 µM; stronger effect = lower value. The essentials:
as §1

The list shows a part of the results. The main result of the screen is listed elsewhere. These columns were measured beside it and carry no call.
% is scaled to controls: 0 for no effect and ±100 for the full control effect.

For the compound `O=C(CSc1nnc2n(Cc3ccccc3)c(=O)c3ccccc3n12)Nc1cccc(Cl)c1`, the activity change, negative = inhibition in assay [1] is -8.2%; in assay [2], 0%; in assay [3] it was 1.19%; in assay [4], -10.2%; in assay [5] it was -10%.

As for `CCOC(=O)c1cc2n(n1)CC(C)(C(=O)NC1CCCCC1)N(c1cccc(F)c1)C2=O` (stereo not drawn), the activity change, negative = inhibition in assay [1] is -0.168%; in assay [2], 4.07%; in assay [3], -4.3%; in assay [4], 0.399%; in assay [5] it was 0.808%.

For `O=C(CCn1ccc2cc(S(=O)(=O)N3CCCC3)ccc21)NC1CCCC1`, the activity change, negative = inhibition in assay [1] stood at 4.25%; in assay [2] it was 0%; in assay [3], 8.08%; in assay [4], 8.99%; in assay [5] it was 4.89%.

In the case of `CN(C)c1ccc(C(=O)NC[C@H]2O[C@@H](CO)[C@@H](O)[C@H]2N(C)CCc2ccccc2)cc1`, the activity change, negative = inhibition was -5.82% in assay [1]; -10.3% in assay [2]; -7.15% in assay [3]; -7.06% in assay [4]; -6.55% in assay [5].

For `CCN1CCN(CCNC(=O)c2cc3n(n2)CC(C)(C(=O)NCc2ccccc2)N(C)C3=O)CC1` (stereo not drawn), the activity change, negative = inhibition was 2.26% in assay [1]; 1.74% in assay [2]; -7.79% in assay [3]; 3.01% in assay [4]; 2.4% in assay [5].

As for `CCN1CCN(C2(C(=O)NCCc3ccccc3)Cc3ccccc3C2)CC1`, the figures for the activity change, negative = inhibition in assay [2], in assay [4] and in assay [5] were -4.51%, -21.5% and -6.63%, respectively.

With `CCCn1c(=O)c2ccc(C(=O)NC(C)CC)cc2n2c(SCC(=O)Nc3cccc(F)c3)nnc12` (stereo not drawn), the activity change, negative = inhibition in assay [1] was -0.105%; in assay [2] it was 5.04%; in assay [3], 1.47%; in assay [4], -3.62%; in assay [5], -1.74%.

Consider `O=C(NCc1ccccn1)C1CCN(Cc2cc3n(n2)CCCNC3)CC1`, for which the activity change, negative = inhibition in assay [1] is -3.6%; in assay [2], -12.6%; in assay [3] it was -2.44%; in assay [4], -17.7%; in assay [5] it was -8.84%.

Regarding `CC(=O)N1CCCC(c2[nH]ccc2C(=O)NCc2cc(C)nn2C)C1` (stereo not drawn), the activity change, negative = inhibition in assay [1] is -3.88%; in assay [2] it was -2.43%; in assay [3] it was -1.71%; in assay [4], -5.21%; in assay [5] it was -0.274%.

As for `CC1(C(=O)NCc2ccccc2)Cn2c(ccc2-c2ccco2)C(=O)N1CCC1=CCCCC1` (stereo not drawn), the activity change, negative = inhibition in assay [1] is -13.1%; in assay [2], 1.62%; in assay [3], -6.72%; in assay [4], -11.3%; in assay [5], -5.61%.

As to `C[C@]12CCC(=O)C=C1CC[C@@H]1[C@@H]2CC[C@@]2(C)[C@H]1CC[C@]2(O)C(=O)CO`, the activity change, negative = inhibition is -10.2% in assay [1]; 2.76% in assay [2]; -1.18% in assay [3]; -6.29% in assay [4]; 4.81% in assay [5].

For `COc1ccccc1CNC(=O)C1(C)Cn2nc(-c3ccccc3)cc2C(=O)N1Cc1ccc2c(c1)OCO2` (stereo not drawn), the activity change, negative = inhibition in assay [1] worked out at 5.82%; in assay [2], 4.56%; in assay [3], 8.06%; in assay [4], 2.95%; in assay [5] it was 0.138%.

As for `COc1cccc(NS(=O)(=O)c2cc3[nH]c(=O)[nH]c3cc2Cl)c1`, the activity change, negative = inhibition was 11.9% in assay [1]; 0% in assay [2]; 10.8% in assay [3]; 0.02% in assay [4]; -3.32% in assay [5].

Regarding `COC(=O)C1=C(C)NC(C)=C(C(=O)OC(C)(C)CN(C)CCC(c2ccccc2)c2ccccc2)C1c1cccc([N+](=O)[O-])c1` (stereo not drawn), the activity change, negative = inhibition in assay [1] is -8.34%; in assay [2], 3.5%; in assay [3] it was -2.79%; in assay [4] it was -8.84%; in assay [5] it was 3.07%.

Turning to `C=C1C[C@]23C[C@H]1CC[C@H]2[C@@]12CC[C@H](O)[C@@](C)(C(=O)O1)[C@H]2[C@@H]3C(=O)O`, the activity change, negative = inhibition is 3.58% in assay [1]; 6.44% in assay [2]; 14% in assay [3]; -5.08% in assay [4]; 6.6% in assay [5].

As for `CC(=O)NC1(C)CCN(Cc2ccccc2-c2ccccc2Oc2ccccc2)C1` (stereo not drawn), the activity change, negative = inhibition was -10.2% in assay [1]; -10.5% in assay [2]; -12.2% in assay [3]; -28.4% in assay [4]; -12.2% in assay [5].

For `CC(C)(O)C(=O)N1CCN(c2ccc(C(F)(F)F)c(C3=C(c4c[nH]c5ccccc45)C(=O)NC3=O)c2)CC1`, the activity change, negative = inhibition in assay [1] is -61.5%; in assay [2], -49.5%; in assay [3], -55%; in assay [4], -61.2%; in assay [5], -61.9%.

Consider `COc1ccc(CNC(=O)C2(C)Cn3cnc(C(=O)Nc4ccc(Cl)cc4F)c3C(=O)N2C2CC2)cc1` (stereo not drawn), for which the activity change, negative = inhibition in assay [1] was -14.6%; in assay [2] it was 4.71%; in assay [3], -4.82%; in assay [4], -7.06%; in assay [5], -1.5%.

As for `CCn1cnnc1CC1CCN(C(=O)c2[nH]nc3c2COc2ccccc2-3)CC1`, the activity change, negative = inhibition in assay [1] is -47.3%; in assay [2], -5.07%; in assay [3], -5%; in assay [4], -14.6%; in assay [5] it was -6.06%.

Consider `CC(=O)O[C@@H]1[C@H](O[C@@H]2O[C@H](CO)[C@@H](O)[C@H](O)[C@H]2O)[C@@H](O[C@@H]2O[C@@H](C)[C@H](O)[C@@H](O[C@@H]3O[C@H](CO)[C@@H](O)[C@H](O)[C@H]3O)[C@H]2O)[C@H](OC(=O)C23CCC4(C)C(=CCC5C6(C)CC(O)C(O[C@@H]7O[C@H](C(=O)O)[C@@H](O)[C@H](O)[C@H]7O)C(C)(C(=O)O)C6CCC54C)C2CC(C)(C)CC3O)O[C@@H]1C` (stereo partly drawn), for which the activity change, negative = inhibition in assay [1] was 4.06%; in assay [2] it was 7.41%; in assay [3], 8.7%; in assay [4], -4.39%; in assay [5] it was 8.49%.

In the case of `O=C(Nc1cccnc1)c1cc(-c2ccnc(F)c2)ccc1OCc1ccccc1`, the activity change, negative = inhibition is -8.31% in assay [1]; -10.7% in assay [2]; -8.33% in assay [3]; -27.6% in assay [4]; -11.2% in assay [5].

With `CN1CC(O)C(O)C(O)C1CO` (stereo not drawn), the activity change, negative = inhibition was determined as 4.49% in assay [1]; 12.1% in assay [2]; 5.83% in assay [3]; 0.387% in assay [4]; 10.7% in assay [5].

For `COc1ccc2cc3n(c2c1)CC(C)(C(=O)NC1CCCCCC1)N(c1ccccc1F)C3=O` (stereo not drawn), the activity change, negative = inhibition in assay [1] was -1.2%; in assay [2], 0%; in assay [3], -1.39%; in assay [4], -8.06%; in assay [5], -11.3%.

In the case of `CC(C)Nc1ncc(C(=O)NC2CCCN(CCc3ccccc3)C2)cn1` (stereo not drawn), the activity change, negative = inhibition was -2.75% in assay [1]; 4.54% in assay [2]; -1.82% in assay [3]; -5.73% in assay [4]; -3.8% in assay [5].

Turning to `COc1cc(NC(=O)Cn2nc3n(Cc4ccc(F)cc4)c(=O)c4ccccc4n3c2=O)cc(OC)c1`, the activity change, negative = inhibition in assay [1] came out at 0.895%; in assay [2], 4.31%; in assay [3], 8.55%; in assay [4], 2.79%; in assay [5], 1.25%.

Take `CCCn1c(=O)c2ccc(C(=O)NC(C)C)cc2n2c(=O)n(CC(=O)Nc3cccc(CC)c3)nc12`: the activity change, negative = inhibition is 1.32% in assay [1]; -0.764% in assay [2]; -3.94% in assay [3]; -0.133% in assay [4]; -4.1% in assay [5].

Turning to `COC(=O)c1ncn2c1C(=O)N(Cc1ccccc1)C(C)(C(=O)NC1CCCCCC1)C2` (stereo not drawn), the activity change, negative = inhibition is 1.51% in assay [1]; 3.6% in assay [2]; -4.15% in assay [3]; 6.26% in assay [4]; 2.88% in assay [5].

On to `O=C(CC1CCCC1)N1CCC(Nc2cccnc2)C1` (stereo not drawn), for which the activity change, negative = inhibition in assay [1] was -61.5%; in assay [2], -44.9%; in assay [3], -4.8%; in assay [4], -15%; in assay [5] it was -38.3%.

With `Cc1ccc(NC(=O)CSc2nnc3n(CCC(C)C)c(=O)c4ccccc4n23)c(C)c1`, the activity change, negative = inhibition was 1.63% in assay [1]; 0.366% in assay [2]; 6.86% in assay [3]; -12.7% in assay [4]; 3.34% in assay [5].

In the case of `Cc1ccc(CN2CC(Cn3c(C)cnc3-c3ccncc3)C2)o1`, the activity change, negative = inhibition in assay [1] is -4.16%; in assay [2], 3.89%; in assay [3] it was -10.4%; in assay [4], -6.34%; in assay [5], 16%.

For `O=c1[nH]c2cc(Br)c(S(=O)(=O)N3CCN(c4ccccc4F)CC3)cc2[nH]1`, the activity change, negative = inhibition in assay [1] was 6.64%; in assay [2], 0%; in assay [3], 7.76%; in assay [4], -4.14%; in assay [5], -2.18%.

Take `COc1cccc(-c2nnnn2[C@H]2CO[C@H]3[C@@H]2OC[C@@H]3NC(=O)c2ccccc2)c1`: the activity change, negative = inhibition in assay [1] was -0.525%; in assay [2], 0.932%; in assay [3], 2.63%; in assay [4], -2.72%; in assay [5] it was -13%.

For `O=C(NCc1c[nH]c2ncccc12)c1cccnc1`, the activity change, negative = inhibition is -4.58% in assay [1]; -4% in assay [2]; -2.48% in assay [3]; -6.75% in assay [4]; -2.74% in assay [5].

On to `CC(=O)c1c(O)cc(O[C@@H]2O[C@H](CO)[C@@H](O)[C@H](O)[C@H]2O)cc1O`, for which the activity change, negative = inhibition in assay [1] is -0.107%; in assay [2], -6.14%; in assay [3], 7.64%; in assay [4], -16%; in assay [5] it was 3.48%.

Turning to `Cc1cc2c(cc3n2CC(C)(C(=O)NC2CCCCCC2)N(c2ccccc2C)C3=O)o1` (stereo not drawn), the activity change, negative = inhibition worked out at 5.09% in assay [1]; 0% in assay [2]; 7.74% in assay [3]; 8.49% in assay [4]; 4.24% in assay [5].
